The other results are listed elsewhere or left out.
tested on: PF3D7_0420300 AP2 domain 1 (GST-tagged); test: gcPBM binding intensity (ln(normalized median fluorescence intensity)); higher = stronger DNA binding
Outline: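 Binding intensity is the highest Masliner-normalised natural-log median intensity over replicate spots in either probe orientation. To obtain it, GST-tagged P. falciparum DNA-binding domains made in E. coli were incubated for 1 h on an Agilent 4 × 180k array of primer-extended double-stranded 36-bp intergenic genomic probes plus negative controls. Detection used Alexa488 anti-GST antibody with scanning at 488 nm.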

| Sequence | gcPBM binding intensity (ln) |
| --- | --- |
| TTTATATTATTTTAAACATGCACAAGTATAATTTAT [TGCATGCA_site233] | 8.97 |
| TAAATTTAGAAACACACACACATATATATATATATA [CACACA_site847] | 9.72 |
| AATTTAAACAAGGATCCACACACCCCAAAAAAAAAA [CACACA_site8125] | 9.83 |
| AATAATTAAAATTATCTACACACCTTTATAAATATA [CACACA_site9300] | 9.29 |
| GCCATTAATTTATACACACACATTATGATTTTTTAT [CACACA_site754] | 9.95 |
| CCTGAACACATACATACACACACACTAATAAAAAAA [CACACA_site8023] | 9.86 |
| ATGCATATGTTTATTGCACACACCAAAAAGAAAACA [CACACA_site403] | 9.64 |
| AAAATGTGCCCACGCGTACACACAAAAAAAGAAAAA [CACACA_site2004] | 9.45 |
| TACAAACTATGATGCACACATATATATATGTATACA [CACACA_site1226] | 9.42 |
| AACATACACATATACACACACACATATATACATATA [CACACA_site1093] | 10.2 |
| AAAAAAAAAAAAACATGTACATAAATGTAAAAAAGT [XGTACX_site8158] | 9.81 |
| TATAATAACAATTTAGTGCATATAATAATATTTTAT | 9.08 |
| GCTTTTGAAAATATACACATGTTAGGAATACAGGGG [TGCATGCA_negctrl_site480] | 9.67 |
| ACATATAAAATGTATACACACAAATATTACAGAGAT [CACACA_site4920] | 9.8 |
| ATTTTTTTTCTTTTTTTTTTACATTTTTTTCTTTTT [CACACA_negctrl_site1289] | 9.62 |
| AATTAAGTTAAACATTAAAAAAAACAAAAAATTAAA [CACACA_negctrl_site1333] | 9.22 |
| ATATATACATATATATGTACGTATATTTTTATTTCT [XGTACX_site6198] | 9.49 |
| TATAAACCCACCTACACACACAACGTAAATGCATTG [CACACA_site2238] | 9.84 |
| ATTTAACAACTTCAAACACACAATATAGATTTATAT [CACACA_site7067] | 9.48 |
| CGTTTATATAGTGATGCATGCATTGTTAACATGGTT [TGCATGCA_site418] | 9.33 |
| TTTATACACAAAAAATGTACATATATATAATGAATT [XGTACX_site1195] | 9.22 |
| TGTATGTCTTTATTTTGTACACAATATAAAAAATTA [XGTACX_site5441] | 9.04 |
| CGCACAAAAATATACACACACACATATATATTTATT [CACACA_site3645] | 10.2 |

| Sequence | gcPBM binding intensity (ln) |
| --- | --- |
| TATTCAACATAATATGCACACAAAAATTATGGAACG [CACACA_site8660] | 9.6 |
| TTTAATTTTTTTTAAACACACACATTACATTCAAAA [CACACA_site7926] | 9.33 |
| AATATATAATTTTATAGTACATAATAAAAGAACAGG [XGTACX_site724] | 9.47 |
| TTATATTATGCTTGAATGCACTTTGAAGCACAATCT [GTGCAC_site9789] | 9.03 |
| ATCACATAAAATATGAATATATATTTTATATATATA [CACACA_negctrl_site340] | 9.08 |
| TTAAAAAAAAAAAGGTGTACTATAATTTAATATCAC [XGTACX_site6316] | 9.28 |
| TATATTTACGTATGTCGAACGTTATTTTGAACAACC [CACACA_negctrl_site1261] | 9.21 |
| TTTTTTTATTAAAAATGTACAAAAATGAAAAAATAA [XGTACX_site8279] | 8.99 |
| CATATAATTTTATGGGTGCATTTTTTTGTAAGACCA | 9.16 |
| TTTTAAACAAAAATTTGTACACAATAATTAAATATA [XGTACX_site6755] | 9.01 |
| ATTTAATTTTTTTTTTTTTTTTTTCAATCCCCTTTT [CACACA_negctrl_site1013] | 8.91 |
| CATTTTAAAGAAAATACACACAAAAATAAATATATA [CACACA_site1395] | 9.54 |
| ACACAAAAAATAAAAATATATATATATTATATATAT [CACACA_negctrl_site1489] | 9.24 |
| TAATAATAAATTGGTTGTACAACCTTATACAGAATA [XGTACX_site2592] | 9.17 |
| TAAAAAAATATATATACATGCATAGAAAAAAAAAAA [TGCATGCA_site552] | 9.33 |
| TTACTTTTAACAAATGTGCGCAGTTATCACACAGAC | 9.23 |
| TATATTTTGTTCTGTTGTACTAAAAAAATCTTTATA [XGTACX_site8372] | 9.12 |
| ACAAAACAAAAAAACTCACACATATACGGCATGTCA [CACACA_site5608] | 9.79 |
| ATTTATTTATTTATATGTACATATTTAAAGAGTTCA [XGTACX_site7631] | 9.08 |
| ATATATATATATATATGTACTAAGAATTCTTTAAAA [XGTACX_site8476] | 9.14 |
| TATACATATGAAAATACACACATACATACATATATA [CACACA_site8484] | 9.85 |
| ATTATACATATATAAGTGCAATAATGTTTTTTCCTT | 9.36 |
| AAGGTATATATAACTACACACTTATATATAATCTAA [CACACA_site92] | 9.45 |

| Sequence | gcPBM binding intensity (ln) |
| --- | --- |
| ATTTTCCAAAATAATTGTACAGGAAAGAAATAATTA [XGTACX_site7424] | 9.18 |
| AACAGACAGAAACACACACACATATATATATATATA [CACACA_site3394] | 9.81 |
| TAATAAAATATGTACACACATACACCCATATATATA [CACACA_site1220] | 9.71 |
| TGTAGTCTGGAGAAAAGTACATAGTATCTGGTAACC [XGTACX_site2025] | 9.19 |
| AGGAACAAAATATACTGTACTTTATTATTTTCAAAA [XGTACX_site4421] | 9.17 |
| ATACATATTTTACATTCACACAACAAATTTATATTT [CACACA_site4700] | 9.34 |
| ATATATTTTAATTGATGTACTTTTTTATGTTAATGA [XGTACX_site4316] | 9.1 |
| TGGGTAAACAGACACACACACATATAGATTTATATA [CACACA_site7026] | 9.9 |
| ACACACATATATACATGTACATATATATATATATAT [XGTACX_site451] | 9.56 |
| CTTCCAATAAAAAATGCACACATTGAAAATATTGAA [CACACA_site2688] | 9.29 |
| AAATTATATGAACATTGTACTTTATATATGTAAGAA [XGTACX_site1611] | 9.11 |
| TATTTTGTTCTTTCCACACACAAATACAGATATTGT [CACACA_site6097] | 9.74 |
| ATTTGTATATATTAATGTACACACATGCGTATGTTC [XGTACX_site7579] | 9.61 |
| TCTTATCCATATATTACACACTATAAATAGAAATTA [CACACA_site6274] | 9.16 |
| ACACATAATATGTGTAGTACTTTTTCTTTAACATTA [XGTACX_site1436] | 9.28 |
| TATAAATATAAATATACACACATATATTTATTTATA [CACACA_site6890] | 9.34 |
| AACAGTAACATTGAATGTACTTAATTTTAAGAAAAT [XGTACX_site2971] | 9.13 |
| ATTTATTGACTATTTACACACATATTTATTATAATA [CACACA_site1624] | 9.69 |
| TTAAAATAAAGAAAATGTACATAAATTAAAATAAAG [XGTACX_site2281] | 9.32 |
| TTTTTTTTTTTTTTTATAGTACATTACCAAAAAAAA [CACACA_negctrl_site1197] | 8.5 |
| GTCGTATAATTTTCAGTGCAATATTTGAATAAATGG [GTGCAC_site9404] | 9.35 |
| ATTTATTAATTACCATGTATAAAAAATTATATAATA [CACACA_negctrl_site581] | 8.93 |
| ATACAATACAAAAACACACACAAAAAAAGAAAAGGA [CACACA_site2156] | 10.1 |

| Sequence | gcPBM binding intensity (ln) |
| --- | --- |
| AGCAACTCAATATATATAAGAATTGTAATATAATAT [GTGCAC_negctrl_site429] | 9.21 |
| ATATATTTATATATTTGTACATATAATATCTTCTTT [XGTACX_site8504] | 9.24 |
| TTTATTTTATTTTCATGTACAAAAGGGGAATAATAA [XGTACX_site2704] | 8.97 |
| GATTTATACAAATATGTACACACTAAATATATATTA [CACACA_site455] | 9.43 |
| TATTTATCTTTACGCACACACTTGCATGTACAAAAG [CACACA_site4753] | 9.57 |
| ATATGTATGTATTTATTATTGTGCATTGTATTTATA [CACACA_negctrl_site664] | 9.57 |
| AATACCCATATCTTCACACATACATAATAAATTATA [CACACA_site5367] | 9.4 |
| TTTGAATATTCATATGCACACAAATTAATATACATA [CACACA_site8040] | 9.3 |
| TTTATTTATGTGTGGGTGCATATACGTATGATGTAT | 9.52 |
| ATCTATATCTATAATACACACATAAATGGATATATA [CACACA_site6284] | 9.45 |
| AATGTGTACGCACGCACACACAAAAAAATATATATA [CACACA_site2913] | 9.56 |
| CAAGCCCTTCTGCTTACACACAGTAATTATTGTGCA [CACACA_site7399] | 9.51 |
| TAAATATATTTATAAGCACACACTAATAAACCAACA [CACACA_site8022] | 9.83 |
| TTATGCAATTTGTATTGTACATTCATGATATTAATA [XGTACX_site5070] | 9.05 |
| AATTATAAAAAAAAAAAAAAAAAAAAAAACTAAATG [CACACA_negctrl_site1379] | 9.28 |
| TAATAAATCAATAAATGTACATATATGTATAATTTC [XGTACX_site980] | 9.29 |
| TTTAAAAATATATTCACACAGAAATAGTAAAAGTTA [CACACA_site4587] | 9.27 |
| ATTATAACTAAATAAATGATATATAATATTTTATTT [XGTACX_negctrl_site234] | 8.91 |
| TATATATAGAAACACACACACACACCCAAGCGTAGC [CACACA_site63] | 10.2 |
| CTATATGTTAAATTCTCACACATTATTACAATTTAA [CACACA_site5979] | 9.29 |
